# This is one part of the list.
# B1: Lmo1413 (Listeria monocytogenes), Q8Y783 (protein)
# chain: MKHAKKSLFTFIIFMTILSITFNPFSAKAAPLMLNLPAPQVDQLYIGDDYITGKLQQEVPMHYPGNAAYVLFNNKQYNITDYTVENDVNFRLKLPKTLEAGDTLNYFTITGNVLDPVAYPGQESYKLAGPFSPIEKANIQVNYVDETNQTLATSDTLSGKLGETYTTSPKAIDGYQVKETPTNATGTYTTNTETIQINYVYEKTAVEGANVSVEYINEATNESIAPTETLSGKIGTTFQAEVKEIDGYELSQVPSNQSGTYTDQTQSVIFKYKKITTPDEVAKDVTVTYKDTKGNQLADPVILKGDIGSTFETEAKSFKGYKLTKTPSNHSSVFTSDSQEVEYVYSKDDAVITPPVTPVNPDKPIINPVKPVNPATSTVPNKNISKKNTTKTVNQTGKTSTALQLPKTGDSENNLPLIIGVSLLISGVYIFTTRRKRVK
# Columns and labels:
# Assay in all cases: glycan array binding signal (z-score within array); higher = stronger binding
# Conditions in all cases: glycan notation: IUPAC condensed, linker removed
# [1] = biological target: Neu5Ac(a2-3)Gal(b1-3)GlcNAc(b1-3)Gal(b1-3)GlcNAc
# Method in brief: (§1)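 From the Consortium for Functional Glycomics database, 3228 arrays were curated, keeping only those whose protein sequence was available. Binding is given as a within-array Z-score averaged across arrays sharing a protein sequence and across linkers. Negative Z-scores can be read as non-binding.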
# [2] = biological target: Neu5Ac(a2-3)Gal(b1-3)GlcNAc(b1-3)Gal(b1-4)GlcNAc
# Method in brief: as §1
# [3] = biological target: Neu5Ac(a2-3)Gal(b1-3)GlcNAc(b1-3)GalNAc
# Method in brief: as §1
# [4] = biological target: Neu5Ac(a2-3)Gal(b1-3)GlcNAc6S
# Method in brief: as §1
# [5] = biological target: Neu5Ac(a2-3)Gal(b1-3)[Fuc(a1-4)]GlcNAc
# Method in brief: as §1
# [6] = biological target: Neu5Ac(a2-3)Gal(b1-3)[Fuc(a1-4)]GlcNAc(b1-3)Gal(b1-3)[Fuc(a1-4)]GlcNAc
# Method in brief: as §1
# [7] = biological target: Neu5Ac(a2-3)Gal(b1-3)[Fuc(a1-4)]GlcNAc(b1-3)Gal(b1-4)[Fuc(a1-3)]GlcNAc
# Method in brief: as §1
# [8] = biological target: Neu5Ac(a2-3)Gal(b1-3)[Neu5Ac(a2-3)Gal(b1-4)]GlcNAc
# Method in brief: as §1
# [9] = biological target: Neu5Ac(a2-3)Gal(b1-3)[Neu5Ac(a2-6)]GalNAc
# Method in brief: as §1
# [10] = biological target: Neu5Ac(a2-3)Gal(b1-4)Glc
# Method in brief: as §1
# [11] = biological target: Neu5Ac(a2-3)Gal(b1-4)GlcNAc
# Method in brief: as §1
# [12] = biological target: Neu5Ac(a2-3)Gal(b1-4)GlcNAc(b1-2)Man(a1-3)[GlcNAc(b1-2)Man(b1-4)GlcNAc(b1-2)Man(a1-6)]Man(b1-4)GlcNAc(b1-4)GlcNAc
# Method in brief: as §1
# [13] = biological target: Neu5Ac(a2-3)Gal(b1-4)GlcNAc(b1-2)Man(a1-3)[Neu5Ac(a2-6)Gal(b1-4)GlcNAc(b1-2)Man(a1-6)]Man(b1-4)GlcNAc(b1-4)GlcNAc
# Method in brief: as §1
# [14] = biological target: Neu5Ac(a2-3)Gal(b1-4)GlcNAc(b1-3)Gal(b1-3)GlcNAc
# Method in brief: as §1
# [15] = biological target: Neu5Ac(a2-3)Gal(b1-4)GlcNAc(b1-3)Gal(b1-4)GlcNAc
# Method in brief: as §1
# [16] = biological target: Neu5Ac(a2-3)Gal(b1-4)GlcNAc(b1-3)Gal(b1-4)GlcNAc(b1-3)Gal(b1-4)GlcNAc
# Method in brief: as §1
# [17] = biological target: Neu5Ac(a2-3)Gal(b1-4)GlcNAc(b1-3)Gal(b1-4)[Fuc(a1-3)]GlcNAc
# Method in brief: as §1
# [18] = biological target: Neu5Ac(a2-3)Gal(b1-4)GlcNAc(b1-3)GalNAc
# Method in brief: as §1
# [19] = biological target: Neu5Ac(a2-3)Gal(b1-4)GlcNAc(b1-6)[Gal(b1-3)]GalNAc
# Method in brief: as §1
# [20] = biological target: Neu5Ac(a2-3)Gal(b1-4)GlcNAc(b1-6)[Neu5Ac(a2-3)Gal(b1-3)]GalNAc
# Method in brief: as §1
# [21] = biological target: Neu5Ac(a2-3)Gal(b1-4)GlcNAc6S
# Method in brief: as §1
# [22] = biological target: Neu5Ac(a2-3)Gal(b1-4)[Fuc(a1-3)]GlcNAc
# Method in brief: as §1
# [23] = biological target: Neu5Ac(a2-3)Gal(b1-4)[Fuc(a1-3)]GlcNAc(b1-3)Gal
# Method in brief: as §1
# [24] = biological target: Neu5Ac(a2-3)Gal(b1-4)[Fuc(a1-3)]GlcNAc(b1-3)Gal(b1-4)GlcNAc
# Method in brief: as §1
# [25] = biological target: Neu5Ac(a2-3)Gal(b1-4)[Fuc(a1-3)]GlcNAc(b1-3)Gal(b1-4)[Fuc(a1-3)]GlcNAc(b1-3)Gal(b1-4)[Fuc(a1-3)]GlcNAc
# Method in brief: as §1
# [26] = biological target: Neu5Ac(a2-3)Gal(b1-4)[Fuc(a1-3)]GlcNAc(b1-3)GalNAc
# Method in brief: as §1
# [27] = biological target: Neu5Ac(a2-3)Gal(b1-4)[Fuc(a1-3)]GlcNAc(b1-6)[Gal(b1-3)]GalNAc
# Method in brief: as §1
# [28] = biological target: Neu5Ac(a2-3)Gal(b1-4)[Fuc(a1-3)]GlcNAc(b1-6)[Neu5Ac(a2-3)Gal(b1-3)]GalNAc
# Method in brief: as §1
# [29] = biological target: Neu5Ac(a2-3)Gal(b1-4)[Fuc(a1-3)]GlcNAc6S
# Method in brief: as §1
# [30] = biological target: Neu5Ac(a2-3)Gal6S(b1-4)GlcNAc
# Method in brief: as §1
# [31] = biological target: Neu5Ac(a2-3)Gal6S(b1-4)[Fuc(a1-3)]GlcNAc
# Method in brief: as §1
# [32] = biological target: Neu5Ac(a2-3)GalNAc
# Method in brief: as §1
# [33] = biological target: Neu5Ac(a2-3)GalNAc(b1-4)GlcNAc
# Method in brief: as §1
# [34] = biological target: Neu5Ac(a2-3)[GalNAc(b1-4)]Gal(b1-4)Glc
# Method in brief: as §1
# [35] = biological target: Neu5Ac(a2-3)[GalNAc(b1-4)]Gal(b1-4)GlcNAc
# Method in brief: as §1
# [36] = biological target: Neu5Ac(a2-3)[GalNAc(b1-4)]Gal(b1-4)GlcNAc(b1-3)GalNAc
# Method in brief: as §1
# [37] = biological target: Neu5Ac(a2-3)[Neu5Ac(a2-6)]GalNAc
# Method in brief: as §1
# [38] = biological target: Neu5Ac(a2-6)Gal
# Method in brief: as §1
# [39] = biological target: Neu5Ac(a2-6)Gal(b1-4)Glc
# Method in brief: as §1
# [40] = biological target: Neu5Ac(a2-6)Gal(b1-4)GlcNAc
# Method in brief: as §1
binder,measurement,setting,value
B1,glycan array binding signal (z-score),[1],-0.026
same,glycan array binding signal (z-score),[2],-0.224
same,glycan array binding signal (z-score),[3],-0.215
same,glycan array binding signal (z-score),[4],-0.152
same,glycan array binding signal (z-score),[5],-0.272
same,glycan array binding signal (z-score),[6],0.433
same,glycan array binding signal (z-score),[7],0.39
same,glycan array binding signal (z-score),[8],-0.256
same,glycan array binding signal (z-score),[9],-0.143
same,glycan array binding signal (z-score),[10],-0.223
same,glycan array binding signal (z-score),[11],-0.234
same,glycan array binding signal (z-score),[12],-0.266
same,glycan array binding signal (z-score),[13],-0.29
same,glycan array binding signal (z-score),[14],-0.241
same,glycan array binding signal (z-score),[15],-0.13
same,glycan array binding signal (z-score),[16],-0.095
same,glycan array binding signal (z-score),[17],-0.272
same,glycan array binding signal (z-score),[18],-0.243
same,glycan array binding signal (z-score),[19],-0.012
same,glycan array binding signal (z-score),[20],-0.265
same,glycan array binding signal (z-score),[21],-0.177
same,glycan array binding signal (z-score),[22],-0.268
same,glycan array binding signal (z-score),[23],-0.285
same,glycan array binding signal (z-score),[24],-0.173
same,glycan array binding signal (z-score),[25],0.379
same,glycan array binding signal (z-score),[26],-0.01
same,glycan array binding signal (z-score),[27],-0.202
same,glycan array binding signal (z-score),[28],-0.151
same,glycan array binding signal (z-score),[29],-0.264
same,glycan array binding signal (z-score),[30],-0.254
same,glycan array binding signal (z-score),[31],-0.286
same,glycan array binding signal (z-score),[32],-0.182
same,glycan array binding signal (z-score),[33],-0.107
same,glycan array binding signal (z-score),[34],-0.248
same,glycan array binding signal (z-score),[35],-0.22
same,glycan array binding signal (z-score),[36],-0.163
same,glycan array binding signal (z-score),[37],-0.27
same,glycan array binding signal (z-score),[38],-0.163
same,glycan array binding signal (z-score),[39],-0.179
same,glycan array binding signal (z-score),[40],-0.258

# From the supplement of paper PMC8728848
